Among all 310,000 compounds or so, about 14,000 (4.5%) showed an effect of 50% or more. Effects have a minus sign here. This is one part of the list.
What follows are compounds tested against human ether-à-go-go-related gene (hERG) potassium channel (human, UniProt Q12809) (assay: primary screen, population patch clamp on CHO cells stably expressing hERG).
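Further: peak tail current of the secondary pulse compared with the same well before compound.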

Sequence of human ether-à-go-go-related gene (hERG) potassium channel (Q12809 whole entry, looked up): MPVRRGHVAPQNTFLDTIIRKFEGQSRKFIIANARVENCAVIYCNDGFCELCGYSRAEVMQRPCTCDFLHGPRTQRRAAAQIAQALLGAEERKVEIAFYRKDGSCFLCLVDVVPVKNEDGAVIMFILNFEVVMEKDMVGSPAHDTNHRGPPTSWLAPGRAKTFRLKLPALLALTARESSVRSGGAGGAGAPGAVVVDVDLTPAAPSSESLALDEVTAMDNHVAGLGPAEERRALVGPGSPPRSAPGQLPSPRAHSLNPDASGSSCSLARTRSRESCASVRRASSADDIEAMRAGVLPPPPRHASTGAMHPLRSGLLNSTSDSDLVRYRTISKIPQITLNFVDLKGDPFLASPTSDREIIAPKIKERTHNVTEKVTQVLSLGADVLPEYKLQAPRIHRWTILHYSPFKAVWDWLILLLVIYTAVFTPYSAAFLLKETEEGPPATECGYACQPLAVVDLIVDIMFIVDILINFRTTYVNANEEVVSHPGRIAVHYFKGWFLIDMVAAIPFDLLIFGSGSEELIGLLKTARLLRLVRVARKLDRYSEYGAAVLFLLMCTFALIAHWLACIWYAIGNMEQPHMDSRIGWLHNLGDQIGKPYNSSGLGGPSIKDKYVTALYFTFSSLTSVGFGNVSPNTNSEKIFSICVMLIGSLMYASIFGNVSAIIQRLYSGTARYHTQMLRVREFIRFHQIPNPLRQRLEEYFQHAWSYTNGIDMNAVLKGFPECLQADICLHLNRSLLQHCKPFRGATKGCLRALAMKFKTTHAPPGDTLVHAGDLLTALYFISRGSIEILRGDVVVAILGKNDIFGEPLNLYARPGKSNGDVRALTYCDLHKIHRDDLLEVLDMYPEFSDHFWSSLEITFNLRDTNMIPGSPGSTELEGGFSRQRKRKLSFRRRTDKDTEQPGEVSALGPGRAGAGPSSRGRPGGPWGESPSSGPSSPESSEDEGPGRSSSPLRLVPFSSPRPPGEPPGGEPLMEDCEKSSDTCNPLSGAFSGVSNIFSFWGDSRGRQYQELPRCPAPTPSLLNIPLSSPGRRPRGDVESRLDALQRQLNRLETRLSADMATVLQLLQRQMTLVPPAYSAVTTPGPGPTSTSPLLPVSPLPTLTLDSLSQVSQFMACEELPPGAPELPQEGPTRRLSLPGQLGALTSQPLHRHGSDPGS

| SMILES | hERG current change (%, negative = inhibition) at 10uM [%] |
| --- | --- |
| N#C/C(=C\c1ccc(OCc2ccc(C(=O)O)cc2)cc1)C(=O)N1CCOCC1 | -8.02 |
| COc1ccc(C(=O)c2c(-c3ccc(OC)cc3)oc3ccccc23)cc1 | 4.22 |
| O=C(NC1CCCc2ccccc21)c1cc(F)cc(F)c1 (centres unmarked) | 18.5 |
| Cc1ccc(CN2CN(S(=O)(=O)c3cccs3)c3nc4ccccc4nc32)cc1 | -4.87 |
| COc1ccc2cc(S(=O)(=O)N3CCCCCC3)ccc2c1 | -18.3 |
| Cc1ccc(C)c(NC(=O)CSc2nc3nc(-c4cccs4)cc(C(F)(F)F)c3c(=O)[nH]2)c1 | -20 |
| COc1ccc(N2C(S)=C(C#N)C(=O)NC2c2ccco2)cc1 (centres unmarked) | 5.69 |
| Cc1ccc(C)n1CCN1CCN(C(=O)CC#N)CC1 | 16.3 |
| Cc1c(/C=N/NC(=O)COc2ccccc2[N+](=O)[O-])c2ccccc2n1C | 9.35 |
| COC(=O)c1ccc(CSc2n[nH]c(C)n2)o1 | -0.248 |
| S=C(N/N=C/c1ccc(Cl)cc1)N1CCOCC1 | -31.4 |
| CCOC(=O)c1ccc(CSc2ncn[nH]2)o1 | 16.7 |
| O=C1CC(c2ccccc2)=Nc2ccccc2N1Cc1ccccc1 | -2.85 |
| Cc1cc(NC(=O)c2ccccc2C)ccc1NC(=O)c1ccccc1Cl | -17.4 |
| CSc1ccccc1N=Cc1nc(-c2ccccc2)oc1O | 8.89 |
| COCCn1c(SCC(=O)Nc2ccc(OC)c(S(N)(=O)=O)c2)nc2ccccc2c1=O | 8.06 |
| Cc1cc(C)c(N2CCN(S(=O)(=O)N3CCCCCC3)CC2)c(C)c1 | 0.083 |
| CC(C)CNc1oc(-c2ccccc2Cl)nc1C#N | -10.5 |
| COc1ccc(C(=O)Nc2cc(Cl)ccc2Cl)c(OC)n1 | -5.79 |

| SMILES | hERG current change (%, negative = inhibition) at 10uM [%] |
| --- | --- |
| Nc1c(-c2ccccc2)c(CSc2nc3ccccc3[nH]2)nn1-c1cccc(C(=O)O)c1 | 21 |
| O=C(Nc1ccccc1N1CCCCC1)c1ccc(OC(F)F)cc1 | -44.8 |
| COc1cc2c(cc1OC)C(c1ccccc1N)=NCC2 | 7.88 |
| Cc1cc(OCC(=O)N(Cc2ccco2)C2CCS(=O)(=O)C2)ccc1Cl (centres unmarked) | -38.5 |
| CCn1c(S(=O)(=O)O)nc2ccccc21 | 5.13 |
| CCCCOC(=O)c1ccc(NC(=O)c2c(Cl)ccc(Cl)c2OC)cc1 | 25.7 |
| Cc1ccc(NC(=O)CC2S/C(=N/N=C/c3c[nH]c4ccccc34)NC2=O)cc1 (centres unmarked) | -1.01 |
| C=CCN1C(=O)C(CC(=O)Nc2ccc(OCC)cc2)N(Cc2ccccn2)C1=S (centres unmarked) | -47 |
| O=C(c1ccc(CNc2c(N3CCOCC3)c(=O)c2=O)cc1)N1CC=C(c2ccccc2)CC1 | -5.86 |
| CC1CCC(N2CCN(c3ncccn3)CC2)CC1 (centres unmarked) | -1.23 |
| CC(C)(C)C(=O)Nc1cc(NC(=O)C(C)(C)C)cc(C(=O)Nc2cc(C(=O)O)cc(C(=O)O)c2)c1 | 0.898 |
| COc1cc(OC)cc(C(=O)N[C@H](C(=O)NC23CC4CC(CC(C4)C2)C3)C(C)C)c1 | 11.8 |
| Cc1ccc(-c2csc3ncnc(SCC(N)=O)c23)cc1 | 4.19 |
| CC(C)C(=O)OCC(=O)Nc1ccc(N=Nc2ccccc2)cc1 | 4.2 |
| Cc1ccc(S(=O)(=O)N2CC3CCC2C3)cc1 (centres unmarked) | 9.74 |
| Cc1ccc2c(c1)N(Cc1cccc(F)c1)C(=O)C(C)O2 (centres unmarked) | -3.11 |
| CCC(C)N(C(=O)COC(=O)c1cc([N+](=O)[O-])ccc1N1CCOCC1)C1CCS(=O)(=O)C1 (centres unmarked) | -7.74 |
| N[C@@H](Cc1cc(I)c(Oc2cc(I)c(O)c(I)c2)c(I)c1)C(=O)O | 3.25 |
| Cc1occc1-c1nnc(SCC(=O)c2ccc(Cl)cc2)n1CC1CCCO1 (centres unmarked) | -65.1 |

| SMILES | hERG current change (%, negative = inhibition) at 10uM [%] |
| --- | --- |
| CC(C)CN(C(=O)CSc1nnc2c(Cl)cc(C(F)(F)F)cn12)C1CCS(=O)(=O)C1 (centres unmarked) | -4.09 |
| COc1cc(Br)cc2cc(C(=O)N3CCCCC3C)c(=O)oc12 (centres unmarked) | 4.25 |
| Cn1/c(=N\NC(=O)C2CCCCC2)sc2ccccc21 | 23 |
| CCC(=O)Nc1c2c(nn1-c1ccc(F)cc1)CS(=O)(=O)C2 | 6.37 |
| CNS(=O)(=O)c1cccc(C(=O)OCC(=O)Nc2cc(F)ccc2F)c1 | -36.7 |
| COc1ccccc1N1CCN(C(=O)c2ccc(-c3ccc(Cl)cc3)o2)CC1 | -7.22 |
| O=C(CSc1nc2ccccc2c(=O)n1-c1ccc(Cl)cc1)N/N=C/C=C/c1ccccc1[N+](=O)[O-] | -4.34 |
| O=C(CN1CCN(C(=O)c2ccco2)CC1)N1CCc2[nH]c3ccccc3c2C1 | -18.5 |
| COc1ccc(CNC(=O)CCNS(=O)(=O)c2cc(Br)cnc2N)cc1 | -1.97 |
| CCOC(=O)C1=C(C)N=c2s/c(=C/c3cccc([N+](=O)[O-])c3O)c(=O)n2C1c1ccc(OC)cc1OC (centres unmarked) | 21.6 |
| CCOC(=O)c1sc(NC(=O)CCN2C(=O)C3CCCCC3C2=O)cc1C (centres unmarked) | -7.92 |
| COc1ccc(CNC(=O)CN(C(=O)c2cc3sccc3n2C)C2CCCC2)cc1 | -0.866 |
| Cc1ccc2[nH]c(C)c(CC(=O)O)c2c1 | 39.7 |
| Cc1ccc(C(=O)N2CCCC2)cc1S(=O)(=O)Nc1cccc(C)c1C | -22.4 |
| O=C(O)c1ccc(Nc2cnc3ccccc3n2)cc1 | 1.09 |
| N#Cc1ccc(C23CC4CC(CC(C4)C2)C3)[nH]c1=O | -2.13 |
| COc1cc2ccccc2cc1C(=O)Nc1ccc(N2CCN(C)CC2)cc1 | -10.4 |
| O=C(Nc1cccc(F)c1)Nc1ccnn1C1CCN(C(=O)CCN2CCCO2)CC1 | -8.39 |
